# Whole data set: some 33,000 sequences, median “E-score (-0.5 to 0.5)” near -0.013, cut for the highest 2% near 0.3. The list shows a part of the results.
# Target: T1, Msn1 (UniProt P22148)
# T1 sequence: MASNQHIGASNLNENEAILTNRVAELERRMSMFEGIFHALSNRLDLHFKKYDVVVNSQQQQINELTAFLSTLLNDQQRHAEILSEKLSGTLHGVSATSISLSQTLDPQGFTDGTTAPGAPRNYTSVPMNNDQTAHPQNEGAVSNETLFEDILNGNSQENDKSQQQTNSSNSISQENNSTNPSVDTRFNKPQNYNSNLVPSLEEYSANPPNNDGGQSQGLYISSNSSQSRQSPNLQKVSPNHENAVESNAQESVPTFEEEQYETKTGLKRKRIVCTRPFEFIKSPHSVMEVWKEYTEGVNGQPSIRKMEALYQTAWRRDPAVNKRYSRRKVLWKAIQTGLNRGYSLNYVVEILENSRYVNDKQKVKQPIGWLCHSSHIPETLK
# Assay: PBM E-score (8-mer binding enrichment) (E-score (-0.5 to 0.5)); higher = stronger / more preferred TF binding; most listed sequences are background and not binding sites
# Conditions: protein concentration: 200 nM; construct: GST-full length
# Method: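 Universal 'all 10-mer' protein binding microarrays (Agilent AMADID 015681) probed with GST-tagged S. cerevisiae TFs (full-length or DBD) made by in vitro transcription/translation (PURExpress), about 100-200 nM. Bound TF was detected with fluorescent anti-GST. Each ungapped 8-mer (which stands for itself and its reverse complement) is scored by the PBM enrichment score (E-score), a modified Wilcoxon-Mann-Whitney statistic from -0.5 to +0.5, computed with the Universal PBM Analysis Suite. Scale: above 0.35 generally sequence-specific binding.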
row,Sequence,PBM E-score
1,CTGCTTTC,0.0972
2,ATGGACAC,0.437
3,AGGTAGCG,0.00657
4,TACACATA,0.0567
5,AGGGCTGA,-0.2
6,ACTGAACA,0.0547
7,GAGGATAA,-0.111
8,AGCAAGAG,-0.121
9,ACGCCGGC,0.0705
10,GCATATGC,-0.0698
11,AACTTCTT,-0.0294
12,AACATAGA,-0.021
13,CATGTGAC,0.025
14,ACCGCAGG,0.00015
15,AGATGACC,-0.0211
16,CTTAACCA,0.133
17,ATGAAGGC,-0.0558
18,CGCAAGCA,-0.00584
19,CGCCCTCA,-0.0601
20,ACATGTAT,0.312
21,TAAACGAA,0.143
22,ACGCGAAT,0.117
23,GGACTAGA,0.136
24,AATGCGAG,0.0646
25,GCACCTAA,-0.134

row,Sequence,PBM E-score
1,AGTCGGTG,-0.227
2,CACGATGG,-0.0924
3,TATTAACA,0.214
4,AGAAGTGG,-0.138
5,AACAATCT,-0.0296
6,AAGGTAAA,0.0622
7,ACCATTAT,-0.0314
8,CGCGTCGC,0.0974
9,TGACATAA,0.364
10,AATAACTG,0.172
11,GCTCGAGC,0.195
12,ACAGGCTG,-0.27
13,GACAAGGC,0.19
14,ACGGGAAA,0.0885
15,AGGGGGTG,-0.411
16,ATAGGTCA,0.228
17,GAATTTAC,0.0867
18,ACAATGAC,0.154
19,CGCCTGAA,0.101
20,CTATTTCC,0.063
21,CAGACTGA,-0.0553
22,ACATACGT,-0.0371
23,CACACCCC,-0.293
24,ACCCGGCG,-0.207
25,TATATACA,0.261

row,Sequence,PBM E-score
1,AGCAGACT,0.11
2,CAAGGCAA,-0.083
3,GGTACGTA,0.058
4,ACCCAAAA,0.147
5,GCCTTCGC,-0.098
6,CGTGCGAA,0.0365
7,AGGGCGAT,-0.253
8,CCATATCC,-0.0745
9,ATGGTGGG,-0.316
10,CGCGCAGA,0.257
11,TACTTACA,-0.158
12,TAATGAAA,0.226
13,AGGACATC,0.477
14,CAGGCGAG,-0.147
15,AACTCCTC,-0.228
16,GCGGCATA,0.0827
17,GCCTACCC,-0.24
18,ATCGGAAA,0.172
19,GTTCAAGA,-0.0249
20,ATGGAGCA,-0.0884
21,GCCCTACC,-0.387
22,CCGCCGTC,-0.114
23,CACACTAG,-0.0633
24,ACGACGTG,0.0937
25,TGACAGCA,0.192

row,Sequence,PBM E-score
1,GGCTACAA,-0.12
2,ACGAATGA,0.0449
3,CGACTTGA,-0.00646
4,ACCAGTGA,-0.174
5,CTAGCCTC,-0.345
6,GAATTGAA,0.0169
7,CCACTGTA,-0.0172
8,AATCGGAC,0.136
9,CAGCGGCA,-0.0537
10,AAGTCCAC,0.243
11,GCGTATCA,0.00071
12,ACTGAGCG,-0.162
13,GGCGTGAA,0.0176
14,AATTCAGC,-0.123
15,ATCCTGGC,-0.12
16,AGCACGAC,-0.0815
17,AATTTTGT,0.34
18,CACAGTCC,-0.00839
19,GAAAGGGA,-0.151
20,GCACTAAC,-0.103
21,AGCGGCTG,-0.22
22,GAACTCAA,0.0257
23,CTGTGCTC,0.0526
24,CGGCAGAC,-0.0763
25,AGCGGTTG,-0.0322

row,Sequence,PBM E-score
1,ACCAACGG,-0.0412
2,ATGGTGCC,-0.137
3,AGCAGGGG,-0.372
4,CAGTTATG,0.0154
5,AGGCGTCG,0.0157
6,CCCCGCCA,-0.0914
7,AGTATGCG,-0.115
8,GCACCCGA,-0.182
9,AACGTGCT,-0.22
10,AAATAATA,0.146
11,AGACTTAT,0.134
12,TGTGCTAA,-0.03
13,GGACTTTA,0.328
14,AACTCTCG,2e-05
15,AACCTTAG,-0.0966
16,GGACCCGA,-0.127
17,GTGACAAA,0.423
18,TCGTGAAA,0.15
19,TAAATACA,0.079
20,AAATATAC,0.0952
21,AACTAGTT,0.116
22,GTTCTCCA,-0.0125
23,CGACCAAA,0.113
24,CGTATGGA,0.0784
25,TAGGTGGA,0.166

row,Sequence,PBM E-score
1,CCATATAG,-0.105
2,GGATCATA,-0.0918
3,ATTAATGG,0.216
4,ATATACCA,-0.00333
5,GCTGAGTA,0.068
6,ACTCGTAC,-0.0875
7,GGCTAACA,-0.0889
8,CCAACTGG,-0.0262
9,ATTAACTA,0.0161
10,ATACCGAC,0.0938
11,GGTGAACC,-0.0638
12,CCCCGATA,0.0947
13,CTCGTGGC,-0.0934
14,AGTCTATC,-0.104
15,CCCTTAAG,0.0259
16,AGTTAGAA,0.146
17,CCGGTGTA,-0.14
18,AACGGCCT,-0.222
19,CCTAAGTA,0.0589
20,CTAAAAGA,0.00238
21,ATCCGATC,0.15
22,ACAACATC,0.0825
23,TATATTGA,0.0589
24,GCTTATCA,-0.161
25,AATAACGC,-0.131

row,Sequence,PBM E-score
1,CGATCCAA,-0.12
2,ATCGAATG,0.0136
3,CTATGTAA,-0.0283
4,AGCACTAT,-0.0501
5,CACACTTA,0.036
6,GAGGAGTA,-0.116
7,GCAACGTA,-0.221
8,AGTGGCTG,0.0171
9,AGGCCTGA,-0.00674
10,CGGAGTTA,-0.0117
11,GTTCTAAA,0.153
12,TCGAGGAA,-0.0647
13,GCCTACAA,-0.0308
14,AACACTTG,-0.0167
15,CCCCGAGA,-0.0201
16,GATGATTA,-0.0758
17,CGTCCGCA,-0.015
18,ACGTTTCC,-0.122
19,CGCTCCAA,-0.107
20,CGCTCGTC,-0.0118
21,ACTGCACG,-0.102
22,AACCGATG,0.00644

# From the supplement of paper PMC3334620
